# Measurements: the supplement of paper PMC8728848
# The list shows a part of the results.
# Legend:
# Assay in all cases: glycan array binding signal (z-score within array); higher = stronger binding
# Conditions in all cases: glycan notation: IUPAC condensed, linker removed
# [1] = biological target: Gal(b1-4)GalNAc(b1-3)[Fuc(a1-2)]Gal(b1-4)GlcNAc
# Procedure, shortened: (§1)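 From the Consortium for Functional Glycomics database, 3228 arrays were curated, keeping only those whose protein sequence was available. Binding is given as a within-array Z-score averaged across arrays sharing a protein sequence and across linkers. Negative Z-scores can be read as non-binding.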
# Gal(b1-4)Glc = biological target: Gal(b1-4)Glc
# Procedure, shortened: as §1
# Gal(b1-4)Glc6S = biological target: Gal(b1-4)Glc6S
# Procedure, shortened: as §1
# Gal(b1-4)GlcNAc = biological target: Gal(b1-4)GlcNAc
# Procedure, shortened: as §1
# [2] = biological target: Gal(b1-4)GlcNAc(a1-6)Gal(b1-4)GlcNAc
# Procedure, shortened: as §1
# Gal(b1-4)GlcNAc(b1-2)Man = biological target: Gal(b1-4)GlcNAc(b1-2)Man
# Procedure, shortened: as §1
# [3] = biological target: Gal(b1-4)GlcNAc(b1-2)Man(a1-3)Man(b1-4)GlcNAc(b1-4)GlcNAc
# Procedure, shortened: as §1
# [4] = biological target: Gal(b1-4)GlcNAc(b1-2)Man(a1-3)[Gal(b1-4)GlcNAc(b1-2)Man(a1-6)]Man(b1-4)GlcNAc(b1-4)GlcNAc
# Procedure, shortened: as §1
# [5] = biological target: Gal(b1-4)GlcNAc(b1-2)Man(a1-3)[Gal(b1-4)GlcNAc(b1-2)Man(a1-6)]Man(b1-4)GlcNAc(b1-4)[Fuc(a1-6)]GlcNAc
# Procedure, shortened: as §1
# [6] = biological target: Gal(b1-4)GlcNAc(b1-2)Man(a1-3)[Gal(b1-4)GlcNAc(b1-2)Man(a1-6)][Gal(b1-4)GlcNAc(b1-4)]Man(b1-4)GlcNAc(b1-4)[Fuc(a1-6)]GlcNAc
# Procedure, shortened: as §1
# [7] = biological target: Gal(b1-4)GlcNAc(b1-2)Man(a1-3)[Gal(b1-4)GlcNAc(b1-2)Man(a1-6)][GlcNAc(b1-4)]Man(b1-4)GlcNAc(b1-4)[Fuc(a1-6)]GlcNAc
# Procedure, shortened: as §1
# [8] = biological target: Gal(b1-4)GlcNAc(b1-2)Man(a1-3)[GlcNAc(b1-2)Man(a1-6)]Man(b1-4)GlcNAc(b1-4)GlcNAc
# Procedure, shortened: as §1
# [9] = biological target: Gal(b1-4)GlcNAc(b1-2)Man(a1-3)[GlcNAc(b1-4)][Gal(b1-4)GlcNAc(b1-2)Man(a1-6)]Man(b1-4)GlcNAc(b1-4)GlcNAc
# Procedure, shortened: as §1
# [10] = biological target: Gal(b1-4)GlcNAc(b1-2)Man(a1-3)[Man(a1-6)]Man(b1-4)GlcNAc(b1-4)GlcNAc
# Procedure, shortened: as §1
# [11] = biological target: Gal(b1-4)GlcNAc(b1-2)Man(a1-6)Man(b1-4)GlcNAc(b1-4)GlcNAc
# Procedure, shortened: as §1
# [12] = biological target: Gal(b1-4)GlcNAc(b1-2)Man(a1-6)[GlcNAc(b1-2)Man(a1-3)]Man(b1-4)GlcNAc(b1-4)GlcNAc
# Procedure, shortened: as §1
# [13] = biological target: Gal(b1-4)GlcNAc(b1-2)Man(a1-6)[Man(a1-3)]Man(b1-4)GlcNAc(b1-4)GlcNAc
# Procedure, shortened: as §1
# [14] = biological target: Gal(b1-4)GlcNAc(b1-2)[Gal(b1-4)GlcNAc(b1-4)]Man(a1-3)[Gal(b1-4)GlcNAc(b1-2)Man(a1-6)]Man(b1-4)GlcNAc(b1-4)GlcNAc
# Procedure, shortened: as §1
# [15] = biological target: Gal(b1-4)GlcNAc(b1-2)[Gal(b1-4)GlcNAc(b1-4)]Man(a1-3)[Gal(b1-4)GlcNAc(b1-2)[Gal(b1-4)GlcNAc(b1-6)]Man(a1-6)]Man(b1-4)GlcNAc(b1-4)GlcNAc
# Procedure, shortened: as §1
# [16] = biological target: Gal(b1-4)GlcNAc(b1-2)[Gal(b1-4)GlcNAc(b1-4)]Man(a1-3)[GlcNAc(b1-4)][Gal(b1-4)GlcNAc(b1-2)Man(a1-6)]Man(b1-4)GlcNAc(b1-4)GlcNAc
# Procedure, shortened: as §1
# [17] = biological target: Gal(b1-4)GlcNAc(b1-2)[Gal(b1-4)GlcNAc(b1-4)]Man(a1-3)[GlcNAc(b1-4)][Gal(b1-4)GlcNAc(b1-2)[Gal(b1-4)GlcNAc(b1-6)]Man(a1-6)]Man(b1-4)GlcNAc(b1-4)GlcNAc
# Procedure, shortened: as §1
# [18] = biological target: Gal(b1-4)GlcNAc(b1-2)[Gal(b1-4)GlcNAc(b1-6)]Man(a1-6)[Gal(b1-4)GlcNAc(b1-2)Man(a1-3)]Man(b1-4)GlcNAc(b1-4)GlcNAc
# Procedure, shortened: as §1
binder,measurement,setting,value
"CGL (Crenomytilus grayanus), H2FH31 (protein) MTTFLIKHKASGKFLHPYGGSSNPANNTKLVLHSDIHERMYFQFDVVDERWGYIKHVASGKIVHPYGGQANPPNETNMVLHQDRHDRALFAMDFFNDNIMHKGGKYIHPKGGSPNPPNNTETVIHGDKHAAMEFIFVSPKNKDKRVLVYA",glycan array binding signal (z-score),[1],1.29
same,glycan array binding signal (z-score),Gal(b1-4)Glc,-0.333
same,glycan array binding signal (z-score),Gal(b1-4)Glc6S,-0.31
same,glycan array binding signal (z-score),Gal(b1-4)GlcNAc,0.054
same,glycan array binding signal (z-score),[2],-0.368
same,glycan array binding signal (z-score),Gal(b1-4)GlcNAc(b1-2)Man,-0.334
same,glycan array binding signal (z-score),[3],-0.054
same,glycan array binding signal (z-score),[4],1.11
same,glycan array binding signal (z-score),[5],0.012
same,glycan array binding signal (z-score),[6],1.2
same,glycan array binding signal (z-score),[7],0.362
same,glycan array binding signal (z-score),[8],-0.122
same,glycan array binding signal (z-score),[9],-0.305
same,glycan array binding signal (z-score),[10],-0.101
same,glycan array binding signal (z-score),[11],-0.23
same,glycan array binding signal (z-score),[12],-0.305
same,glycan array binding signal (z-score),[13],-0.38
same,glycan array binding signal (z-score),[14],1.43
same,glycan array binding signal (z-score),[15],1.1
same,glycan array binding signal (z-score),[16],0.217
same,glycan array binding signal (z-score),[17],0.775
same,glycan array binding signal (z-score),[18],1.13
